Experimental data reported in the supplement of paper PMC12067093, “Discovery and optimisation of a covalent ligand for TRIM25 and its application to targeted protein ubiquitination” (Chemical Science, 2025).
The full data set covers some 21,000 targets. This sample favours those with the largest changes.

Compound: CC1Cc2ccccc2N1C(=O)C1CCCN(C1)C(=O)CCl (mixture of isomers) [TRIM25 ligand 11 (diastereomer mixture)]
Assay: probe-labelled cysteine peptide fold change vs DMSO (competition) (log2 fold change); higher = less target engagement (more negative = stronger competition)
Details: THP-1, incubation time: 4 h
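Also: competitive chemoproteomic profiling in live THP-1 cells with an iodoacetamide desthiobiotin (IA-DTB) probe, comparing probe-labelled peptide intensities in compound-treated cells against DMSO-treated controls.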

Target | probe-labelled cysteine peptide fold change (10 µM) | probe-labelled cysteine peptide fold change (50 µM)
ANKRD17_O75179_672_TTANNDHTVLSLACAGGHLAVVELLLAHGADPTHR (UniProt O75179) | -0.046 | -0.181
ALDH5A1_P51649_272_EVGEAICTDPLVSK (UniProt P51649) | -0.017 | 0.218
AQR_O60306_1039_IIAMTCTHAALKR (UniProt O60306) | -0.207 | 0.0491
ASNA1_O43681_53+55_TTCSCSLAVQLSK (UniProt O43681) | 0.0545 | 
ARL14EP_Q8N8R7_57_TGMTLSGNNTICFHHVK (UniProt Q8N8R7) | 0.0953 | 0.00312
BOD1L1_Q8NFC6_876_CDMDSTNMDSNLKPEEVVHK (UniProt Q8NFC6) | -0.0761 | -0.189
ATOX1_O00244_41_VCIESEHSMDTLLATLK (UniProt O00244) | -0.0316 | -0.0141
BLVRB_P30043_109_VVACTSAFLLWDPTK (UniProt P30043) | -0.0186 | 0.0611
AGPS_O00116_58_EALSTNECK (UniProt O00116) | 0.0265 | -0.111
ALDH1L1_O75891_537_YFAGWCDK (UniProt O75891) | 0.0811 | 0.214
ATXN2_Q99700_852_DSFIENSSSNCTSGSSKPNSPSISPSILSNTEHK (UniProt Q99700) | -0.097 | -0.224
ALDOA_P04075_73_VNPCIGGVILFHETLYQK (UniProt P04075) | 0.199 | 0.0247
ATP6V1A_P38606_138_DIKWDFTPCK (UniProt P38606) | -0.797 | -1.27
BLVRA_P53004_204_MTVCLETEK (UniProt P53004) | 0.159 | 0.0873
ATP6V1H_Q9UI12_85_TFINLMTHICK (UniProt Q9UI12) | 0.0544 | -0.0133
ARPC1A_Q92747_13_SLHQFLLEPITCHAWNR (UniProt Q92747) | 0.342 | 0.615
AP1B1_Q10567_433_YESVIATLCENLDSLDEPEAR (UniProt Q10567) | 0.794 | 0.446
ARHGEF10_O15013_1030_STVMSLACTSQSLYAGLVNGAVASYAR (UniProt O15013) | 0.349 | 0.118
ATP6V1A_P38606_240+254_VLDALFPCVQGGTTAIPGAFGCGK (UniProt P38606) | -0.204 | -0.131
BLM_P54132_396_LLDCGNELLQQR (UniProt P54132) | -0.00656 | -0.235
AHRR_A9YTQ3_650_GEQSCTCR (UniProt A9YTQ3) | -0.0852 | 0.681

Target | probe-labelled cysteine peptide fold change (10 µM) | probe-labelled cysteine peptide fold change (50 µM)
AP4S1_Q9Y587_122_VHIILDEMVLNGCIVETNR (UniProt Q9Y587) | 0.0776 | -0.00665
ATM_Q13315_1396_ATFAYISNCHK (UniProt Q13315) | 0.0278 | -0.309
ARFRP1_Q13795_125_VVTSEALCGVPVLVLANK (UniProt Q13795) | 0.0726 | -0.0916
ALG13_Q9NP73_86_ADLVISHAGAGSCLETLEK (UniProt Q9NP73) | 0.371 | -0.0635
ANKRD50_Q9ULJ7_122_AQDSDTLCVGGFIR (UniProt Q9ULJ7) | -0.399 | -0.88
AURKB_Q96GD4_170_SCTFDEQR (UniProt Q96GD4) | -0.0164 | 0.321
ATPAF1_Q5TC12_194_AQSCPTFLCALPR (UniProt Q5TC12) | -0.107 | 0.0875
BABAM2_Q9NXR7_34_VGLDATNCLR (UniProt Q9NXR7) | -0.138 | -0.073
ARHGEF10L_Q9HCE6_1236_EICSVAIISGGQGYR (UniProt Q9HCE6) | -0.0622 | 
B2M_P61769_100_DEYACR (UniProt P61769) | 0.129 | 0.355
AMPD2_Q01433_230_CGVPFTDLLDAAK (UniProt Q01433) | 0.0113 | 0.0565
ANXA7_P20073_327_LLVSMCQGNR (UniProt P20073) | 0.0881 | 0.102
ANKLE1_Q8NAG6_517_KQPHQACPK (UniProt Q8NAG6) | 0.172 | 0.182
BOP1_Q14137_620_LMPNCK (UniProt Q14137) | -0.0435 | -0.0726
ATP6V1B2_P21281_112_TSCEFTGDILR (UniProt P21281) | -0.0159 | -0.117
AMBP_P02760_281_ECLQTCR (UniProt P02760) | 0.607 | 0.447
ARHGEF18_Q6ZSZ5_887_SAMSEIEGIQSLICR (UniProt Q6ZSZ5) | -0.0479 | 0.0618
ATR_Q13535_2497_HGENILFDSLTGECVHVDFNCLFNK (UniProt Q13535) | 0.441 | 0.219
ATP1A1_P05023_211_IISANGCK (UniProt P05023) | -0.25 | -0.142
BANK1_Q8NDB2_349_ELPTLLHCAAK (UniProt Q8NDB2) | -0.0861 | 0.105
AKAP1_Q92667_64_EPLPVEDVCPK (UniProt Q92667) | 0.15 | 0.0642

Target | probe-labelled cysteine peptide fold change (10 µM) | probe-labelled cysteine peptide fold change (50 µM)
APOOL_Q6UXV4_74_TATGCYIGWCK (UniProt Q6UXV4) | -0.033 | 0.00836
BANF1_O75531_80_DCFGCLR (UniProt O75531) | -0.0973 | 0.121
AMBP_P02760_277_ECLQTCR (UniProt P02760) | 0.264 | 0.576
AURKA_O14965_33_RVLVTQQFPCQNPLPVNSGQAQR (UniProt O14965) | 0.107 | -0.193
AKR7A2_O43488_156_RLQCPQVDLFYLHAPDHGTPVEETLHACQR (UniProt O43488) | -0.128 | 0.041
BIRC6_Q9NR09_62_DGCMHCDADGLHSLSYHPALNAILAVTSR (UniProt Q9NR09) | -0.224 | -0.0432
AGL_P35573_126_VGADNHVLPLDCVTLQTFLAK (UniProt P35573) | -0.0129 | 0.0562
ARHGEF7_Q14155_490_TLGNVTYMSQVLIQCAGSEEK (UniProt Q14155) | 0.0515 | -0.0922
BIRC6_Q9NR09_1293_GCDLLQEVSVTIR (UniProt Q9NR09) | 0.219 | 0.16
AGK_Q53H12_72_ATVFLNPAACK (UniProt Q53H12) | 0.0656 | 0.0451
APPL1_Q9UKG1_603_SESNLSSVCYIFESNNEGEK (UniProt Q9UKG1) | 0.208 | 0.1
AGO2_Q9UKV8_787_FSSDELQILTYQLCHTYVR (UniProt Q9UKV8) | 0.232 | 0.0285
BCLAF1_Q9NYF8_688_CDSADLRHDIDR (UniProt Q9NYF8) | -0.909 | -0.508
BCAS3_Q9H6U6_412_VQDICFSHDCR (UniProt Q9H6U6) | 0.00552 | 0.251
ARHGEF12_Q9NZN5_921_FQTFVQDAESNPLCR (UniProt Q9NZN5) | 0.0822 | 0.105
ANXA7_P20073_413_TILQCALNR (UniProt P20073) | 0.07 | 0.257
ANKRD17_O75179_714_GGHTSVVCYLLDYPNNLLSAPPPDVTQLTPPSHDLNR (UniProt O75179) | 0.0617 | -0.0914
BCAS3_Q9H6U6_442_GTSHVFPINPYGGQPCVR (UniProt Q9H6U6) | 0.0264 | 0.0262
BLVRA_P53004_204_MTVCLETEKK (UniProt P53004) | -0.114 | 0.0392
ARAP3_Q8WWN8_527_QCAGQHR (UniProt Q8WWN8) | 0.338 | -0.32
APOH_P02749_345_TDASDVKPC (UniProt P02749) | 0.581 | 0.244

Target | probe-labelled cysteine peptide fold change (10 µM) | probe-labelled cysteine peptide fold change (50 µM)
AK6_Q9Y3D8_122_KLTDNIQCEIFQVLYEEATASYK (UniProt Q9Y3D8) | 0.286 | 0.108
AGPAT1_Q99943_229_RFTSGQCQVR (UniProt Q99943) | 0.183 | 0.345
APPL1_Q9UKG1_549_MTESHLLVTCDCLK (UniProt Q9UKG1) | 0.138 | 0.222
ANKMY2_Q8IV38_227_MHYISCIFQK (UniProt Q8IV38) | 0.128 | 0.21
ATP1A1_P05023_663_ACVVHGSDLK (UniProt P05023) | 0.205 | -0.125
AHCYL1_O43865_151_IVGCTHITAQTAVLIETLCALGAQCR (UniProt O43865) | 0.221 | 0.0186
AMBP_P02760_277+281_ECLQTCR (UniProt P02760) | 0.453 | 0.32
AHCYL1_O43865_292+293_QKFDNLYCCR (UniProt O43865) | -0.0193 | -0.0771
AGL_P35573_234_WIQEHPECAYNLVNSPHLK (UniProt P35573) | 0.0565 | -0.0246
ATRX_P46100_1760_IILTGTPLQNNLIEYHCMVNFIK (UniProt P46100) | 0.0119 | 0.0932
ANO10_Q9NW15_124_GFDDNNDDFLTMAECQFIIK (UniProt Q9NW15) | -0.447 | -0.646
BAZ1A_Q9NRL2_404_EDMECDDLK (UniProt Q9NRL2) | -0.247 | -0.229
BLM_P54132_704_SLCYQLPACVSPGVTVVISPLR (UniProt P54132) | -0.495 | -0.176
APAF1_O14727_203_LQNLCTR (UniProt O14727) | 0.0498 | 0.0464
ARHGAP45_Q92619_469_TCVADAK (UniProt Q92619) | -0.0831 | 0.0512
ANKRD44_Q8N8A2_810_KFIGNPFTPLHCAIINDHGNCASLLLGAIDSSIVSCRDDK (UniProt Q8N8A2) | -0.285 | -0.0718
AHNAK_Q09666_108_EVFSSCSSEVVLSGDDEEYQR (UniProt Q09666) | 0.0368 | -0.166
ASCC2_Q9H1I8_276_HDFCYR (UniProt Q9H1I8) | 0.106 | 0.0786
ANXA7_P20073_413_TILQCALNRPAFFAER (UniProt P20073) | 0.0362 | 0.0988
ATL3_Q6DD88_256+262_NHIHSCFSDVTCFLLPHPGLQVATSPDFDGK (UniProt Q6DD88) | 0.0437 | -0.00361
BAZ1B_Q9UIG0_1435_TEQCLVALLHK (UniProt Q9UIG0) | 0.0176 | 0.12
